# Results from patent US20140017255A1 (E R SQUIBB AND SONS L L C, published 2014).
# T1: biotinylated human HVEM-Fc (R&D Systems) (human, UniProt Q92956 39-202, biotinylated)
# T1 construct: also called hHVEM; not shown: Fc part of the commercial fusion protein; not described
# T1 sequence (looked up): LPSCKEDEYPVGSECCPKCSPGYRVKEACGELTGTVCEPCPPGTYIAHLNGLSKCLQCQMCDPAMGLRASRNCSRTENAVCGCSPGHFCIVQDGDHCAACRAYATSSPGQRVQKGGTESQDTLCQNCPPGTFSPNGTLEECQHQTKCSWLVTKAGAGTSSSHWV
# B1: human BTLA expressed on CHO cells (receptor)
# chain: not shown
# notes: also called CHO/huBTLA; hBTLA
# Molecular target: T1, biotinylated human HVEM-Fc (R&D Systems)
# Experiment: flow cytometry on CHO cells expressing human BTLA, biotinylated human HVEM-Fc at 1 ug/mL, PE-SA detection
binder,measurement,value
B1,binding result,binds
